Data from paper PMC10482964.
No constants are given. Whether binding was seen depends on the method and setting. For part of these data: In cells and extracts the contact can be indirect. Some binding calls cover weakened binding; strength is not graded here. For part of these data: Sequences can lack the tags named with a protein.

The chains behind the UniProt entries cited, without tags or fusion partners. Where a name states a change or a piece, a line headed by the entry shows the natural chain unless it says otherwise.
UniProt Q8R5A0: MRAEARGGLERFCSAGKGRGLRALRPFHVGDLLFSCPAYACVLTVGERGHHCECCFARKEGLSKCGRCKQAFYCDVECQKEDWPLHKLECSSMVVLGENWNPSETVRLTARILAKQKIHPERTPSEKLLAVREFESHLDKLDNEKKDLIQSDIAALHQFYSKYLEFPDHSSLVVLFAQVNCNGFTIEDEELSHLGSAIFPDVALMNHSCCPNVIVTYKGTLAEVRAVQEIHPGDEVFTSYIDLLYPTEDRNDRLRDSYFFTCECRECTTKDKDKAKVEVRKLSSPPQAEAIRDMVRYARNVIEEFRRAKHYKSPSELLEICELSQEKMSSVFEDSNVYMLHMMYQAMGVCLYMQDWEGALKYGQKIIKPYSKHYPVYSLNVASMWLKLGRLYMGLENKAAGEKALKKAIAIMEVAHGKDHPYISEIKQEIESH
UniProt P62137: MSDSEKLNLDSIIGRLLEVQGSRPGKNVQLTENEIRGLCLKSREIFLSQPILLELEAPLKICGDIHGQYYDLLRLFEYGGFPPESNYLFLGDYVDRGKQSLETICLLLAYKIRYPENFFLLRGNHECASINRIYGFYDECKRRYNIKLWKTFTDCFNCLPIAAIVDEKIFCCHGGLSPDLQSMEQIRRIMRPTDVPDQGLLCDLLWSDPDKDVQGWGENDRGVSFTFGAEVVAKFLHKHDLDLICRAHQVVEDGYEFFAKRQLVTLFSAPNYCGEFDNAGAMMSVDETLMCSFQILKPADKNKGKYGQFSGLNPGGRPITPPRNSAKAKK

Key:
[1] = target: Flag-tagged SMYD2 (RAW 264.7) (mouse) (UniProt Q8R5A0); assay: co-IP
[2] = target: T1, IKK-ε, tagged (exogenous, HEK293T) (UniProt Q9R0T8); assay: co-IP
T1 sequence: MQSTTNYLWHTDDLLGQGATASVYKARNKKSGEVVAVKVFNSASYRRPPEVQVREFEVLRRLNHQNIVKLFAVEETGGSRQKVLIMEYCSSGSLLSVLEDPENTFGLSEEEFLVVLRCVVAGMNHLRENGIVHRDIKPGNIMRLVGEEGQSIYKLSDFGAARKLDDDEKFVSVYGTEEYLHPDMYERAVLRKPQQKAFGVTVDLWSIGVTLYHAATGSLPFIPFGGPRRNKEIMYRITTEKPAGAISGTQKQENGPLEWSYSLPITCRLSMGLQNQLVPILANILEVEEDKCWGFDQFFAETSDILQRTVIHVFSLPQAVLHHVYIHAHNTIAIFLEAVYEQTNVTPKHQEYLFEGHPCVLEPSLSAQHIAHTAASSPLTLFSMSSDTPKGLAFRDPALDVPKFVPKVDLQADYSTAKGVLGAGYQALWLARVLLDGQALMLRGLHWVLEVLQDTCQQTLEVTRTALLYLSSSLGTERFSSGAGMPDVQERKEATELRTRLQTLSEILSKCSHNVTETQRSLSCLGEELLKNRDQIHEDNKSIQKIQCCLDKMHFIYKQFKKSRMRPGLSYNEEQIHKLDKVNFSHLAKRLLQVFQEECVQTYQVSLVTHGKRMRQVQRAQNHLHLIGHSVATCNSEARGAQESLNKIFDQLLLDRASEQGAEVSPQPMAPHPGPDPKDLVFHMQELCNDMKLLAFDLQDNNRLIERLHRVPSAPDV

[3] = target: T2, IRF3 with deletion of DBD (1-140aa) (mouse) (UniProt P70671); assay: co-IP
T2 sequence: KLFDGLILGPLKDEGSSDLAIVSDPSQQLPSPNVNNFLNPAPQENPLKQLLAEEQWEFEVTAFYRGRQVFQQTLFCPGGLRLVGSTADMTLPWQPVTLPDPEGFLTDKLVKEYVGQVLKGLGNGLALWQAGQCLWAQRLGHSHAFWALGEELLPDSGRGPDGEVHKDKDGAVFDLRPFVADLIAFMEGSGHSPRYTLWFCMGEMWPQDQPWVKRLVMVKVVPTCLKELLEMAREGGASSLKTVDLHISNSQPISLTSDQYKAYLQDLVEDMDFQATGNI

[4] = target: T3, IRF3, tagged, wild type (exogenous, HEK293T) (mouse) (UniProt P70671); assay: co-IP
T3 sequence: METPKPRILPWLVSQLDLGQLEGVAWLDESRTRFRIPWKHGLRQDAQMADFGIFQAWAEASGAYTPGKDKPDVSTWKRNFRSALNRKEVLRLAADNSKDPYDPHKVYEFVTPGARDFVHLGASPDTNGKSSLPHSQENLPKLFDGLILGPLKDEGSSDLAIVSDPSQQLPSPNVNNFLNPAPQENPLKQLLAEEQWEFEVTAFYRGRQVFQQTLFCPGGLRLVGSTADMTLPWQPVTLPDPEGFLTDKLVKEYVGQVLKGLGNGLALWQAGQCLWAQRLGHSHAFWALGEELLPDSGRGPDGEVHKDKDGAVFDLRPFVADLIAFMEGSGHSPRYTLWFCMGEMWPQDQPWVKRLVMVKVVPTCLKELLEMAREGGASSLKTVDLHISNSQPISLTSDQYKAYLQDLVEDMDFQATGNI

[5] = target: T4, endogenous IRF3 (peritoneal macrophages) (mouse (endogenous in peritoneal macrophages)) (UniProt P70671); assay: co-IP
T4 sequence: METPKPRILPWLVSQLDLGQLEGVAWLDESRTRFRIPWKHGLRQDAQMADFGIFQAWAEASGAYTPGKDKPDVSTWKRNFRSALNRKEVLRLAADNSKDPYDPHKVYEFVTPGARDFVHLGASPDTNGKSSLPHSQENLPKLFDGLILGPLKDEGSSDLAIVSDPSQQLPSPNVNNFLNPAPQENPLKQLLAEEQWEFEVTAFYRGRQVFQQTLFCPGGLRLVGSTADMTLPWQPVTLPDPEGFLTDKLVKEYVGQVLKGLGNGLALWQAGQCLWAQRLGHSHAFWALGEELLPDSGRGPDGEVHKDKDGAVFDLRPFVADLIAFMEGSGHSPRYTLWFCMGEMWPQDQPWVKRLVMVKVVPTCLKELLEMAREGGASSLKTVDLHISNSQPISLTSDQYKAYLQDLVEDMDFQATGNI

[6] = target: endogenous SMYD2 (peritoneal macrophages) (mouse (endogenous in peritoneal macrophages)) (UniProt Q8R5A0); assay: co-IP
SMYD2Δ1-195aa (mouse) = SMYD2Δ1-195aa (mouse) (UniProt Q8R5A0); assay: co-IP
SMYD2Δ1-251aa (mouse) = SMYD2Δ1-251aa (mouse) (UniProt Q8R5A0); assay: co-IP
[7] = target: T5, endogenous IRF3 (peritoneal macrophages) (mouse (endogenous in peritoneal macrophages)), P70671; assay: native gel or EMSA; details: remark: other sources report otherwise
T5 chain: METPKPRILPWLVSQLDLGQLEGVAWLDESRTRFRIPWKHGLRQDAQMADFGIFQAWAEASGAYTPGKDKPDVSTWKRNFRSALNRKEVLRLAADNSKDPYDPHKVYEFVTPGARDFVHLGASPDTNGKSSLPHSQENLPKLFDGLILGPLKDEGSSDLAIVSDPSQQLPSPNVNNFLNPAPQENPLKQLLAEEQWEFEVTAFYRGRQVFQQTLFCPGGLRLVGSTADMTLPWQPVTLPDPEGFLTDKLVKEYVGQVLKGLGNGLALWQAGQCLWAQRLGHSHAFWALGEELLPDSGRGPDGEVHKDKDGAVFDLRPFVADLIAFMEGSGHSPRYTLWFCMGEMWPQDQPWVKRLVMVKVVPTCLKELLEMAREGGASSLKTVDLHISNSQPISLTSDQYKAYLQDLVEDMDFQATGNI

For “endogenous PP1α (RAW 264.7) (from UniProt P62137 1-330) (enzyme)”, the binding [1] was “binds”.

With “SMYD2, tagged, wild type (exogenous, HEK293T) (from UniProt Q8R5A0 1-433)” the binding [2] was “no binding”, the binding [3] was “binds” and the binding [4] was “binds”.

With “endogenous SMYD2 (peritoneal macrophages) (from UniProt Q8R5A0 1-433)” the binding [5] was “binds”.

“SMYD2Δ1-195aa (from UniProt Q8R5A0 196-433) (domain or fragment)” was tested, and the binding [4] was “binds”.

“endogenous PP1α (peritoneal macrophages) (from UniProt P62137 1-330) (enzyme)” was tested, and the binding [5] was “binds” and the binding [6] was “binds”.

For “tagged PP1α (exogenous) (from UniProt P62137 1-330) (enzyme)”, the binding (SMYD2Δ1-195aa (mouse)) was “binds” and the binding (SMYD2Δ1-251aa (mouse)) was “no binding”.

With “SMYD2Δ1-251aa (from UniProt Q8R5A0 252-433) (domain or fragment)” the binding [4] was “no binding”.

B1: endogenous IRF3 (peritoneal macrophages), P70671 1-419 (protein)
chain: METPKPRILPWLVSQLDLGQLEGVAWLDESRTRFRIPWKHGLRQDAQMADFGIFQAWAEASGAYTPGKDKPDVSTWKRNFRSALNRKEVLRLAADNSKDPYDPHKVYEFVTPGARDFVHLGASPDTNGKSSLPHSQENLPKLFDGLILGPLKDEGSSDLAIVSDPSQQLPSPNVNNFLNPAPQENPLKQLLAEEQWEFEVTAFYRGRQVFQQTLFCPGGLRLVGSTADMTLPWQPVTLPDPEGFLTDKLVKEYVGQVLKGLGNGLALWQAGQCLWAQRLGHSHAFWALGEELLPDSGRGPDGEVHKDKDGAVFDLRPFVADLIAFMEGSGHSPRYTLWFCMGEMWPQDQPWVKRLVMVKVVPTCLKELLEMAREGGASSLKTVDLHISNSQPISLTSDQYKAYLQDLVEDMDFQATGNI
With B1 the binding [7] was “binds”.
